From patent publication US20160159914A1 (Amgen, published 2016)

Biological target: T1, IL-17RE-FC (Amgen) (UniProt Q8NFR9 176-451)
T1 construct: Amgen material; also called IL-17RE-FC (176-451); not shown: Fc region
T1 sequence (looked up): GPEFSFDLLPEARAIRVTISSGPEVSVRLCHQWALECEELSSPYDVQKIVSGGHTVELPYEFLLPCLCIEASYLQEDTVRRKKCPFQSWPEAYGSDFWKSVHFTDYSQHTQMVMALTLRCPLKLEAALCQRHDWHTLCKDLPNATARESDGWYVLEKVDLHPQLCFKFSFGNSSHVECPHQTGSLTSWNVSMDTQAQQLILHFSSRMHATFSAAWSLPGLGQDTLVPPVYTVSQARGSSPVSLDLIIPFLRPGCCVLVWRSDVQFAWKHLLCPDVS
Assay: AlphaScreen, His-tagged ligand with Fc-tagged receptor (nickel chelate donor beads, Protein A acceptor beads)
Method: IL-17 family ligands and receptors were tested in pair wise combinations by Alphalisa™ in Perkin-Elmer's immunoassay buffer. Ligands were tagged with a hexa-histidine tag and receptors were tagged with a FC region.
Reagents: OptiPlate-384™, White Opaque 384-well MicroPlate; Perkin Elmer; Catalog #6007299; AlphaScreen™ Protein A Acceptor beads, 5 mg; Perkin Elmer; Catalog #6760137M; AlphaScreen® Nickel Chelate Donor beads 5 mg; Perkin Elmer; Catalog# AS101M; IL-17C-His-Avi (Amgen); IL-17A-His (Amgen); IL-17RE-FC (Amgen); and IL-17RA-FC (R&D Systems) Catalog#177-IR.
AlphaScreen™ protocol: Ligand and receptor dilutions were made in Perkin-Elmer ImmunoAssay Buffer. IL-17 ligands were diluted to a concentration range of 0.5 to 50 nM. IL-17 receptors were diluted to a concentration range of 0 to 300 nM. Donor and acceptor beads were held constant at 20 ug/mL. 2.5 ul of ligand was added to the 384 well OptiPlate™. 2.5 ul of receptor was added to the 384 well OptiPlate™. 5 uL of donor and acceptor beads were added to the 384 well OptiPlate™. The plate was sealed with adhesive according to manufacturer's protocol. The plate was incubated at room temperature for 3 hours and protected from ambient light. The plate was read using the 384 AlphaScreen Protocol on Envision Plate Reader (Perkin Elmer).

B1: IL-17A-His (Amgen) (ligand)
chain: not shown
notes: not shown: hexa-histidine tag
Does B1 bind?
Result: no binding
